# In all, about 360,000 compounds went through this assay and about 740 (0.21%) were called active. The shares of active, inactive and inconclusive entries below differ from those in the screen. Calls come from the whole dose curve; as a rule, active = well fitted inhibition curve with a large enough effect; inconclusive = small, poorly fitted or top-dose-only effect; inactive = no such curve, though single readings can be large or run the other way. No potency is given beside an inconclusive call; the fits are too rough.
# Test system: Plasmodium falciparum AMA1 (3D7) - RON2 peptide interaction
# Assay: qHTS for Inhibitors of AMA1-RON; Towards Development of Antimalarial Drug Lead: Primary Screen; note: nearly all actives have a fitted effect of over 45% in size;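 for activity change, negative = inhibition: 0% = vehicle wells and -100% = peptide control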
# Conditions: AlphaScreen AMA1-biotinylated RON2 peptide binding; activity change, negative = inhibition: at 58.2 µM (top of the series) unless noted
# Outline: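 AMA1 (3D7) with his tag at 25 nM final met compounds first, then biotinylated RON2 peptide at 25 nM; detection used donor plus acceptor beads, 10 µg/mL apiece, read by AlphaScreen after 30 min at room temperature.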
# Potency is the fitted concentration of half-maximal effect; tags give direction and shape of the fitted curve.
SMILES,Potency,"activity change, negative = inhibition"
COc1ccccc1/C=C/C=N/NC(=O)c1ccccn1,"inconclusive [inhibitor, full curve, poor fit]",–
Cc1ccc(/C(O)=C2/C(=O)C(=O)N(CCN3CCOCC3)C2c2cccnc2)cc1 (centres undefined),–,inactive: 0%
COc1ccc(-n2c(CN3CCN(c4ccccc4)CC3)nc3ccc([N+](=O)[O-])cc3c2=O)c(OC)c1,"inconclusive [inhibitor, single point]",–
COc1ccc(-c2sc3ccccc3c2-c2ccc(OCCN(C)C)cc2)cc1,"inconclusive [inhibitor, single point]",–
CCOC(=O)c1cc2ccccc2n1C1CCN(Cc2ccccc2)CC1,"inconclusive [inhibitor, partial curve]",–
Cc1ccccc1Cn1nnc(-c2ccc(F)cc2)n1,–,inactive: 22.4%
CC(C)Cn1cnc2c1c(=O)n(CC(=O)Nc1ccc3c(c1)OCO3)c(=O)n2Cc1ccccc1,"inconclusive [inhibitor, single point]",–
O=C(NC(C(=O)c1ccccc1)N1CCCCCC1)c1ccco1 (centres undefined),–,inactive: 1.31% [at 2.32 µM]
Cc1ccc(-n2c(C)nc3c(cnn3-c3ccc(C)c(C)c3)c2=O)cc1C,–,inactive: 13.2%
CCCNc1ncc2c(=O)[nH][nH]c(=O)c2n1,"inconclusive [inhibitor, single point]",–
CCC(C)n1c(SCc2ccccc2)nc2ccsc2c1=O (centres undefined),–,inactive: 5.07%
Cc1cc(C)c(N=Cc2c(O)c3ccccc3oc2=O)c(C)c1,–,inactive: 6.9%
COc1ccc2cc3cc(C(=O)NCC4CCCO4)oc3nc2c1 (centres undefined),–,inactive: 7.02%
O=C(c1cccc(S(=O)(=O)N2CCCc3ccccc32)c1)N1CCN(c2ccccc2)CC1,"inconclusive [inhibitor, single point]",–
COc1ccc(N2CCN(C(=O)c3cccc(NC(=O)c4ccco4)c3)CC2)cc1,–,inactive: -13.8%
C[C@@H]1NC(=O)N[C@@H]1CCCCCC(=O)O,"inconclusive [inhibitor, full curve, poor fit]",–
CCN(CC)c1cc(C)c2cc(NC(=O)CNC(C)=O)ccc2n1,–,inactive: 6.86%
Cc1cccc(Nc2nc(N)c([N+](=O)[O-])c(N3CCCC(C)C3)n2)c1 (centres undefined),"inconclusive [inhibitor, partial curve, poor fit]",–
COc1ccc(Cl)cc1NC(=O)CN(C)Cc1ccc(OC)c(OC)c1,"inconclusive [inhibitor, partial curve]",–
COCCCNC(=O)c1ccc2c3c(onc13)-c1ccccc1C2=O,"inconclusive [inhibitor, full curve, poor fit]",–
Cc1cc(C)cc(C(=O)NCC(=O)NNC(=O)CSc2ccccc2F)c1,–,inactive: 102%
CSc1ccc(-c2cc3c(c4c2ccn4C)C2CCC3C2)cc1 (centres undefined),"inconclusive [inhibitor, partial curve]",–
O=C(c1ccc2c(=O)n(Cc3ccc4c(c3)OCO4)c(=S)[nH]c2c1)N1CCCCC1,–,inactive: 36.3%

SMILES,Potency,"activity change, negative = inhibition"
CC1CCCN(CCCNC(=O)C2CC(=O)N(CCc3ccccc3)C2)C1 (centres undefined),–,inactive: -0.971%
CSCCC(c1nnnn1Cc1ccccc1)N1CCN(C/C=C/c2ccccc2)CC1 (centres undefined),"inconclusive [inhibitor, single point]",–
CC(=O)N1N=C(c2ccc(C)cc2)OC1c1ccc(C)cc1 (centres undefined),–,inactive: -0.182%
COC(=O)CN1C(=S)N(c2ccc(F)cc2)C(=O)C1CC(=O)Nc1ccc(F)cc1 (centres undefined),"inconclusive [inhibitor, single point]",–
Cc1cccc(NC(=O)CSc2nnc(-c3ccco3)c(-c3ccco3)n2)c1C,"inconclusive [inhibitor, single point]",–
Cc1nn(-c2ccccc2)c2c1C(c1ccc(Br)s1)C(C#N)=C(N)O2 (centres undefined),"inconclusive [inhibitor, single point]",–
O=C(O)CC(CCc1ccccc1)OC1OC(CO)C(O)C(O)C1O (centres undefined),"inconclusive [inhibitor, full curve, poor fit]",–
Cc1nn(-c2ccc(C(=O)OC(C)C)cc2)c(C)c1[N+](=O)[O-],"inconclusive [inhibitor, full curve, poor fit]",–
CC1=Nc2cc(C(=O)NCC3CCCO3)ccc2Sc2ccc(C)cc21 (centres undefined),–,inactive: -8.63%
Cc1nc(N2CCCCC2)sc1C(=O)c1cccc([N+](=O)[O-])c1,"inconclusive [inhibitor, partial curve]",–
OC1CCCN(CC(O)c2ccccc2)C1 (centres undefined),"inconclusive [inhibitor, partial curve, poor fit]",–
Cc1ccc2cc(CN(CC3CCCO3)C(=O)C(C)C)c(=O)[nH]c2c1 (centres undefined),"inconclusive [inhibitor, single point]",–
CN1C[C@@H]2C(c3ccccc3)C3(c4ccccc4)CC2(C3)[C@H]1c1ccccc1 (some centres undefined),"inconclusive [inhibitor, single point]",–
Cc1cc2c(cc1S(=O)(=O)NC1CCCCC1C)OCC(=O)N2 (centres undefined),–,inactive: 2.05%
COc1ccc(C(=O)N2c3cc4c(cc3C(C)=CC2(C)C)OCO4)cc1,"inconclusive [inhibitor, partial curve]",–
CC1(C)CC(=O)C2=C(C1)NC1=C(C(=O)c3ccccc31)C2c1ccc(Cl)cc1 (centres undefined),"inconclusive [inhibitor, single point]",–
COc1ccccc1-c1sc2ccccc2c1-c1ccc(OCCN2CCOCC2)cc1,"inconclusive [inhibitor, partial curve]",–
O=C(Nc1cccc(C(F)(F)F)c1)c1cccnc1N1CCN(c2ccccc2)CC1,active: 29.9 µM,–
CN(NC1CC(=O)N(c2ccccc2)C1=O)c1ccccc1 (centres undefined),–,inactive: 7.36%
Oc1ccc2ccccc2c1N=Nc1ccc(F)cc1,active: 1.41 µM,–
O=C(COc1ccccc1)N1CCN(c2ccc([N+](=O)[O-])c(N3CCCCC3)c2)CC1,–,inactive: -22.9%
O=C(c1ccc(Cl)c(S(=O)(=O)N2CCCCC2)c1)N1CCCC1,–,inactive: -14.6%
Cn1ccnc1SCC(=O)Nc1cccc(O)c1,–,inactive: 4.77%

SMILES,Potency,"activity change, negative = inhibition"
CCN(CC(=O)Nc1cc(Cl)ccc1OC)CC(=O)NC1CCS(=O)(=O)C1 (centres undefined),"inconclusive [inhibitor, partial curve]",–
Cc1ccc(C)c(S(=O)(=O)N2CCN(Cc3cc4c(cc3O)OCO4)CC2)c1,"inconclusive [inhibitor, single point]",–
O=C(OCc1ccccc1)N(CCCCN(CCCNCc1ccccc1)C(=O)OCc1ccccc1)CCCNCc1ccccc1,"inconclusive [inhibitor, partial curve]",–
O=[N+]([O-])c1cc2c(cc1CN1CCN(c3ccc(F)cc3)CC1)OCO2,"inconclusive [inhibitor, single point]",–
Nc1c(Cl)cc(N=Nc2ccccc2)cc1Cl,"inconclusive [inhibitor, partial curve]",–
CC(C)C1COS(=O)(=O)NC1CC(=O)SC(C)(C)C (centres undefined),–,inactive: 18.8%
Cc1ccc(S(=O)(=O)n2cc(C=O)c3ccccc32)cc1,–,inactive: 0%
COc1ccc(-c2ocnc2C(=O)Nc2ccc(N3CCOCC3)cc2N2CCOCC2)cc1OC,"inconclusive [inhibitor, single point]",–
Cc1cc(C)c2nc(N(CCCN(C)C)C(=O)c3ccc(S(=O)(=O)N4CCCCCC4)cc3)sc2c1,"inconclusive [inhibitor, partial curve]",–
Cc1cccc(N2CCN(C(=O)CSc3ccsc3[N+](=O)[O-])CC2C)c1 (centres undefined),"inconclusive [inhibitor, single point]",–
CN(C)CCCNC(=S)NCC(c1ccc(Cl)cc1Cl)c1c[nH]c2ccccc12 (centres undefined),"inconclusive [inhibitor, partial curve]",–
C#CCOCCOCCOCCNc1nc(N2CCN(C(=O)CCCCCCCCCCNC(=O)[C@@H](CCSC)n3cc(CCO)nn3)CC2)nc(N2CCN(C(=O)CCCCCCCCCCNC(=O)[C@H](CCCN=C(N)N)n3cc(C[C@@H](C)CC)nn3)CC2)n1,"inconclusive [inhibitor, single point]",–
S=C(NC12CC3CC(CC(C3)C1)C2)N1CCCC1,–,inactive: 10.8%
O=C(COC(=O)CCc1c[nH]c2ccccc12)NC(c1ccccc1)c1ccccc1,"inconclusive [inhibitor, partial curve]",–
NS(=O)(=O)c1ccc2nc(NC(=O)Nc3ccc(F)cc3)sc2c1,–,inactive: -4.96%
Cc1ccsc1C(=O)C1CCCN(Cc2cccc(-n3cccn3)c2)C1 (centres undefined),"inconclusive [inhibitor, single point]",–
O=C(O)C1=NN(c2ccccc2)C(=O)C1,"inconclusive [inhibitor, partial curve]",–
C=CCn1cccc(/C=C/C(=O)c2ccc(C(C)(C)C)cc2)c1=S,"inconclusive [inhibitor, single point]",–
Fc1ccc(Nc2nc(Oc3ccccc3F)nc(N3CCCC3)n2)cc1,"inconclusive [inhibitor, single point]",–
O=C(c1ccc2nc(N3CCCCC3)sc2c1)N1CCN(Cc2ccc3c(c2)OCO3)CC1,"inconclusive [inhibitor, single point]",–
O=C(Nc1ccc(N2CCCCC2)cc1)C(Cl)c1ccccc1 (centres undefined),"inconclusive [inhibitor, partial curve]",–
CCc1nnc(NC(=O)CN2C(=O)NC3(CC(C)CC(C)(C)C3)C2=O)s1 (centres undefined),"inconclusive [inhibitor, single point]",–
Cn1cc(CN(CCCN2CCOCC2)C(=S)Nc2cccc(Cl)c2)c2ccccc21,"inconclusive [inhibitor, partial curve]",–

# — PubChem BioAssay AID720542 (National Center for Advancing Translational Sciences (NCATS), 2013)
